In all, about 150,000 compounds went through this assay and about 540 (0.36%) showed an effect of 50% or more. The list shows a part of the results.

The experiment relates to Plasmodium falciparum. The experiment can be described thus: Primary screen in NF54 nanoGlo assay, in single point, at 2uM, 72h; a lower Z score goes with more inhibition. Format: functional, Erythrocyte. As to conditions: timepoint 72 hour.
Turning to `CC[C@H]1CN(Cc2ccc(Cn3cccn3)cc2)CCN1C(C)C`, the “% Inhibition” value is -11% and the Z score is given as 1.37.
On the same counts, the results for `Cc1cc(C(N)=O)c(-c2cccc(C(=O)N3C[C@@H](C)O[C@@H](C)C3)c2)nc1C` are -9% and 1.19.
The corresponding values for `COc1cccc(C[C@]2(C(=O)O)CCCN(Cc3cccnc3)C2)c1` are -11% and 0.99.
On the same counts, the results for `Cc1onc(-c2ccccn2)c1C(=O)NCCc1c[nH]c2ccccc12` are 7% and -1.24.
Turning to `C[C@H]1CCc2nn(Cc3cccnc3)c(=O)cc2C1`, the “% Inhibition” value is reported as -9% and the Z score stood at 1.18.
On the same counts, the results for `CC(C)N(CC1CC2C=CC1C2)C(=O)c1cccc(OCC(N)=O)c1` (stereo not drawn) are -10% and 1.38.
On the same counts, the results for `CC(C)(C)NC(=O)c1coc(COc2ccc3ncccc3c2)n1` are -9% and 0.86.
The corresponding values for `O=C(c1cccc(-n2cnnn2)c1)N1CCCC[C@H](c2ccccc2)C1` are -7% and 1.3.
Consider `O=C(Nc1cccc(Cl)c1)Nc1cccc(-c2cc3ccccc3[nH]2)c1`, for which the “% Inhibition” value was -11% and the Z score worked out at 1.32.
`CN(Cc1cc(-c2ccccc2)on1)C(=O)C[C@H]1CCOC1`: the “% Inhibition” value is -2% and the Z score turned out to be 0.15.
On to `CC(C)c1cc(NS(=O)(=O)c2ccc(S(=O)(=O)NC3CC3)cc2)[nH]n1`, for which the “% Inhibition” value is -8% and the Z score is 1.02.
On the same counts, the results for `Cc1c(C(=O)NC[C@H]2Cc3ccccc3O2)ccc2cncn12` are -14% and 1.87.
On the same counts, the results for `COc1ccccc1O[C@@H](C)CNc1ccccn1` are -3% and 0.39.
The corresponding values for `CC1=C[C@@H](c2ccc(Cl)cc2)n2nc(NC(=O)c3ccccc3)nc2N1` are -6% and 1.14.
Consider `O=C1C[C@@H](c2ccccc2)N(C(=O)c2nccc3ccccc23)CCN1`, for which the “% Inhibition” value is reported as -2% and the Z score stood at 0.32.
On the same counts, the results for `CC1(C)Cc2nc3ccccc3c(NCc3ccccc3)c2[C@@H](O)C1` are 41% and -4.99.
The corresponding values for `CCn1cc(Br)cc1C(=O)N[C@H]1CCc2nccn2C1` are -3% and 0.65.
The corresponding values for `CCc1ccc(C(=O)N2CCC(C(C)(C)O)CC2)[nH]1` are -2% and 0.31.
Take `Cc1ccsc1C(=O)N1CCN(C[C@H](OCc2ccc(C#N)cc2)c2cccc(N3CCCC3)c2)CC1`: the “% Inhibition” value is 0% and the Z score was -0.01.
The corresponding values for `Cc1cc(C)n([C@@H](C)C(=O)NCCc2nnc(N)s2)n1` are 0% and -0.03.
The corresponding values for `Cc1cn[nH]c1NC(=O)Nc1ccccn1` are -12% and 1.29.
The corresponding values for `COCC1(CNC(=O)CNC(C)=O)CCCC1` are -5% and 0.85.
In the case of `CC(C)n1nc(O)c2c(-c3cnn(C)c3)c3c(nc21)[nH]c(=O)n3C`, the “% Inhibition” value is on record as 5% and the Z score is given as -0.65.
Consider `Cc1cc(C(=O)N2CCCNC(=O)[C@@H]2Cc2ccccc2)ns1`, for which the “% Inhibition” value is -2% and the Z score was 0.31.
On the same counts, the results for `CC(C)NC(=O)Nc1nc2cc3c(cc2s1)OCCO3` are -8% and 0.95.
On the same counts, the results for `CC1(C)C(=O)NCCN1C(=O)c1n[nH]c2c1CCC2` are -9% and 1.02.
`C[C@@H]1CC=CC[C@H]1C(=O)NS(=O)(=O)c1ccnn1C`: the “% Inhibition” value was -9% and the Z score is reported as 1.49.
As to `O=C(NCCn1cc(-c2nc(-c3cccnc3)no2)nn1)c1cccs1`, the “% Inhibition” value is -18% and the Z score was determined as 3.4.
As to `CN1CCC[C@@H]1CCn1ccnc1-c1cc(C(C)(C)C)[nH]n1`, the “% Inhibition” value was -1% and the Z score is recorded as 0.08.
The corresponding values for `C[C@H](NCCS(=O)(=O)C(C)(C)C)C1CCC1` are 0% and 0.03.
Take `COCCCN(Cc1cccc(OC)c1)C(=O)c1coc(CN)n1`: the “% Inhibition” value is given as -2% and the Z score is on record as 0.41.
The corresponding values for `Cc1ccc(C(=O)N/C(=N/c2ccc3c(c2)OCCO3)NCc2c(C)nn(C)c2C)cc1` are -5% and 0.85.
The corresponding values for `COc1cc2c(cc1[C@H]1CC(=O)Nc3c1c(C1CC1)nn3C)OCCCO2` are -12% and 2.34.
On the same counts, the results for `Cc1cnc(C(C)CNC(=O)N2CCN(C3CCOCC3)C[C@H]2C)s1` (stereo partly drawn) are -6% and 0.78.
For `CC(C)NC1CCN(Cc2sncc2Br)CC1`, the “% Inhibition” value is -36% and the Z score worked out at 4.22.
The corresponding values for `CCNC(=O)CN(CC)C1CC2CCC1C2` (stereo not drawn) are -5% and 0.48.
The corresponding values for `NCC1CCCC1NC(=O)c1ccc(-c2ccccc2F)o1` (stereo not drawn) are 4% and -0.44.
With `O=C1CN(C(=O)Cc2noc3ccccc23)c2ccccc2N1`, the “% Inhibition” value is listed as -21% and the Z score stood at 2.19.
The corresponding values for `O=C(Nc1cnc(Oc2ccccc2)nc1)c1ccc(Br)o1` are -7% and 1.4.
Take `CC(C)n1ncnc1-c1ccc(C(=O)NCCN2CCCC[C@@H]2CO)cc1`: the “% Inhibition” value was -2% and the Z score was 0.23.
On the same counts, the results for `Cc1ccc(C)n1CC(=O)N1CCc2[nH]c3c(Br)cccc3c2C1` are -7% and 0.86.
The corresponding values for `CCn1nccc1[C@@H]1CCCN1C(=O)Nc1cc(Cl)c(OC)cc1OC` are 0% and 0.01.
The corresponding values for `CN1CN(C[C@@H]2C[C@H]2c2ccccc2)CC1=O` are -4% and 0.72.
Take `CC(=O)Nc1ccc(C(=O)N2[C@@H](C)CCC2(C)C)nc1`: the “% Inhibition” value is recorded as 0% and the Z score is listed as -0.02.

In general, % Inhibition refers to the change of the read-out against control, counted positive when it falls.

The values above are taken from ChEMBL document CHEMBL4888484, “Replenishing the malaria drug discovery pipeline: Screening and hit evaluation of the MMV Hit Generation Library 1 (HGL1) against asexual blood stage Plasmodium falciparum ,using a nano luciferase reporter read-out” (2022).
